Publication PMC10668032
Some of the results follow. At the low end of the ranking, values are background and their order means little.

What follows are sequences tested against SIX1-Q177R homeodomain (UniProt Q15475) (assay: universal protein binding microarray). Settings: Universal all-10-mer PBM (8x60K, AMADID 030236), 300 nM GST-tagged protein, Alexa Fluor 488 anti-GST; buffer, salt, pH and temperature not stated; high values mean tight binding; most listed sequences are background and not binding sites; double strand, one strand shown.

Q: Which binding signal does the source give for GACATAAC here?
A: -0.0279 E-score

Q: How did the binding signal turn out when CATCCGCA was run?
A: -0.139 E-score

Q: CCTCTTGA was tested. Which binding signal did it give?
A: -0.0566 E-score

Q: Which binding signal does the source give for ATTCGGAC here?
A: -0.0513 E-score

Q: With AAGGTAAC as the sequence, how does the binding signal read?
A: 0.0528 E-score

Q: For CAACTAGC, which binding signal is on record?
A: -0.0815 E-score

Q: For CTGTTTGA, which binding signal is on record?
A: -0.0403 E-score

Q: Which binding signal does the source give for AGGATGTA here?
A: -0.0421 E-score

Q: For CTATTCGC, which binding signal is on record?
A: -0.00226 E-score

Q: With GTTCCTAA as the sequence, how does the binding signal read?
A: 0.139 E-score

Q: For CTCGGGTA, which binding signal is on record?
A: 0.168 E-score

Q: For GGTTGAAC, which binding signal is on record?
A: -0.00733 E-score

Q: For GATTTGTA, which binding signal is on record?
A: -0.125 E-score

Q: Which binding signal does the source give for AAGTCAAG here?
A: -0.185 E-score

Q: For ATTGTACC, which binding signal is on record?
A: -0.0772 E-score

Q: Which binding signal does the source give for CGGTTGGA here?
A: -0.0539 E-score

Q: For AGAACATG, which binding signal is on record?
A: -0.152 E-score

Q: Which binding signal does the source give for ACCCCTGA here?
A: 0.24 E-score

Q: With GAACGTCC as the sequence, how does the binding signal read?
A: -0.0783 E-score

Q: How did the binding signal turn out when CTGAGTCC was run?
A: -0.167 E-score

Q: Which binding signal does the source give for GCTAGAAA here?
A: -0.211 E-score

Q: With CCAAACGG as the sequence, how does the binding signal read?
A: -0.123 E-score

Q: GCAAGCAA was tested. Which binding signal did it give?
A: -0.227 E-score

Q: How did the binding signal turn out when CCAGACCG was run?
A: -0.0322 E-score

Q: With AATCGAAG as the sequence, how does the binding signal read?
A: -0.0378 E-score

Q: With CCACCTAC as the sequence, how does the binding signal read?
A: 0.17 E-score

Q: Which binding signal does the source give for AACTTATC here?
A: -0.214 E-score

Q: With ATCCTGTC as the sequence, how does the binding signal read?
A: -0.152 E-score

Q: How did the binding signal turn out when CTGAAGAC was run?
A: -0.0199 E-score

Q: GGAAATTA was tested. Which binding signal did it give?
A: 0.046 E-score

Q: Which binding signal does the source give for CTTGGGGC here?
A: -0.0372 E-score

Q: With GACGTATA as the sequence, how does the binding signal read?
A: -0.109 E-score

Q: How did the binding signal turn out when CCTAGTCC was run?
A: 0.00572 E-score

Q: For ACCTGACA, which binding signal is on record?
A: 0.228 E-score

Q: For AGTCGCGA, which binding signal is on record?
A: 0.189 E-score

Q: For AAATAGTT, which binding signal is on record?
A: -0.209 E-score

Q: ATAGCAGG was tested. Which binding signal did it give?
A: 0.067 E-score

Q: With AGGGTAAA as the sequence, how does the binding signal read?
A: 0.0589 E-score

Q: ATCCAACA was tested. Which binding signal did it give?
A: 0.0961 E-score

Q: With ACAAGCAT as the sequence, how does the binding signal read?
A: -0.0887 E-score

Q: With GAATTCCA as the sequence, how does the binding signal read?
A: -0.261 E-score

Q: Which binding signal does the source give for ATCGATAG here?
A: -0.194 E-score

Q: How did the binding signal turn out when GCTCAGGA was run?
A: -0.114 E-score

Q: For ATATATAA, which binding signal is on record?
A: -0.00381 E-score

Q: With GTACATGA as the sequence, how does the binding signal read?
A: 0.0241 E-score

Q: Which binding signal does the source give for AGACGAAC here?
A: -0.0372 E-score

Q: For AAATGGTT, which binding signal is on record?
A: -0.285 E-score

Q: Which binding signal does the source give for AATTCGGT here?
A: -0.105 E-score

Q: GCTTCTGA was tested. Which binding signal did it give?
A: -0.165 E-score

Q: Which binding signal does the source give for GAACGCTA here?
A: -0.126 E-score

Q: For CATGAGAG, which binding signal is on record?
A: -0.136 E-score

Q: Which binding signal does the source give for CTAACGCA here?
A: 0.0146 E-score

Q: For AAGCCGCG, which binding signal is on record?
A: -0.0646 E-score

Q: Which binding signal does the source give for CTGCCTAC here?
A: -0.0173 E-score

Q: With AATCCAAC as the sequence, how does the binding signal read?
A: 0.096 E-score

Q: Which binding signal does the source give for AGCACGGA here?
A: 0.0948 E-score

Q: How did the binding signal turn out when ACCCCCCA was run?
A: 0.306 E-score

Q: AGATTCGG was tested. Which binding signal did it give?
A: 0.0565 E-score

Q: How did the binding signal turn out when CACTATTA was run?
A: 0.158 E-score

Q: GCCTTACC was tested. Which binding signal did it give?
A: -0.0667 E-score

Q: With GTCTTGGA as the sequence, how does the binding signal read?
A: -0.0151 E-score

Q: With ACGCGTCA as the sequence, how does the binding signal read?
A: 0.099 E-score

Q: How did the binding signal turn out when GAAGAGAC was run?
A: -0.0229 E-score

Q: Which binding signal does the source give for CCGTGAAG here?
A: -0.212 E-score

Q: How did the binding signal turn out when ATAGTATG was run?
A: -0.034 E-score

Q: With GGGACGGA as the sequence, how does the binding signal read?
A: -0.265 E-score

Q: Which binding signal does the source give for GTAATGTA here?
A: -0.0128 E-score

Q: Which binding signal does the source give for CCGATAAA here?
A: -0.178 E-score

Q: How did the binding signal turn out when CAGAAGTA was run?
A: -0.196 E-score

Q: Which binding signal does the source give for GTATAGAC here?
A: -0.0241 E-score

Q: How did the binding signal turn out when ATGCACTA was run?
A: -0.0351 E-score

Q: AGAAATAT was tested. Which binding signal did it give?
A: -0.0575 E-score

Q: GAAAACGC was tested. Which binding signal did it give?
A: -0.129 E-score

Q: Which binding signal does the source give for ACACCCTA here?
A: 0.466 E-score

Q: For ACCCACCA, which binding signal is on record?
A: 0.2 E-score

Q: Which binding signal does the source give for AACGTTGA here?
A: -0.227 E-score

Q: For CGCATACA, which binding signal is on record?
A: 0.185 E-score

Q: With TGTGAAAA as the sequence, how does the binding signal read?
A: 0.0116 E-score

Q: With GTTAAGTA as the sequence, how does the binding signal read?
A: 0.077 E-score

Q: How did the binding signal turn out when AAACCGAT was run?
A: -0.0306 E-score

Q: Which binding signal does the source give for CTGCCACA here?
A: -0.00215 E-score

Q: AGCTTCGC was tested. Which binding signal did it give?
A: -0.228 E-score

Q: Which binding signal does the source give for CTTAGTCA here?
A: -0.304 E-score

Q: For GAAGGCTA, which binding signal is on record?
A: -0.249 E-score

Q: AACAGTAA was tested. Which binding signal did it give?
A: -0.137 E-score

Q: Which binding signal does the source give for CCACCTTC here?
A: 0.19 E-score

Q: How did the binding signal turn out when AGCGATGC was run?
A: -0.263 E-score

Q: How did the binding signal turn out when AAATGACC was run?
A: -0.0386 E-score

Q: ATACTGAT was tested. Which binding signal did it give?
A: 0.0331 E-score

Q: Which binding signal does the source give for ATTGCCGC here?
A: -0.26 E-score

Q: AATTATAT was tested. Which binding signal did it give?
A: 0.0479 E-score

Q: AGAATCGC was tested. Which binding signal did it give?
A: -0.0585 E-score

Q: How did the binding signal turn out when GGGCCACC was run?
A: -0.156 E-score

Q: How did the binding signal turn out when ATTGGCTA was run?
A: -0.235 E-score

Q: ATTACGCG was tested. Which binding signal did it give?
A: 0.0608 E-score

Q: How did the binding signal turn out when AAGTACCT was run?
A: 0.0031 E-score

Q: Which binding signal does the source give for ACAAGTCG here?
A: -0.104 E-score

Q: With CGCCTCGC as the sequence, how does the binding signal read?
A: -0.089 E-score

Q: How did the binding signal turn out when GCATTAAC was run?
A: 0.0583 E-score

Q: How did the binding signal turn out when TAAGCATA was run?
A: -0.042 E-score

Q: How did the binding signal turn out when GAACAATC was run?
A: -0.302 E-score

Q: For AGTTAGCA, which binding signal is on record?
A: 0.0431 E-score

Q: CTGTCTAA was tested. Which binding signal did it give?
A: -0.0271 E-score

Q: CCGAAAGA was tested. Which binding signal did it give?
A: -0.203 E-score

Q: For GGATCAAC, which binding signal is on record?
A: 0.111 E-score

Q: With ACGACCCA as the sequence, how does the binding signal read?
A: 0.129 E-score

Q: ACCTTACT was tested. Which binding signal did it give?
A: 0.128 E-score

Q: For AACAGTTC, which binding signal is on record?
A: -0.162 E-score

Q: GTCTACTA was tested. Which binding signal did it give?
A: -0.0466 E-score

Q: With ACTCGAAT as the sequence, how does the binding signal read?
A: -0.221 E-score
